Consider 36 compounds from patent publication US20250214977A1, “STAT6 INHIBITORS AND USES THEREOF” (Kymera Therapeutics, Inc., priority 2024, published 2025).

The assay deals with T1, biotinylated truncated STAT6 (123-632)-avi (Homo sapiens, UniProt P42226).
T1 sequence (P42226 123-632 limits assumed): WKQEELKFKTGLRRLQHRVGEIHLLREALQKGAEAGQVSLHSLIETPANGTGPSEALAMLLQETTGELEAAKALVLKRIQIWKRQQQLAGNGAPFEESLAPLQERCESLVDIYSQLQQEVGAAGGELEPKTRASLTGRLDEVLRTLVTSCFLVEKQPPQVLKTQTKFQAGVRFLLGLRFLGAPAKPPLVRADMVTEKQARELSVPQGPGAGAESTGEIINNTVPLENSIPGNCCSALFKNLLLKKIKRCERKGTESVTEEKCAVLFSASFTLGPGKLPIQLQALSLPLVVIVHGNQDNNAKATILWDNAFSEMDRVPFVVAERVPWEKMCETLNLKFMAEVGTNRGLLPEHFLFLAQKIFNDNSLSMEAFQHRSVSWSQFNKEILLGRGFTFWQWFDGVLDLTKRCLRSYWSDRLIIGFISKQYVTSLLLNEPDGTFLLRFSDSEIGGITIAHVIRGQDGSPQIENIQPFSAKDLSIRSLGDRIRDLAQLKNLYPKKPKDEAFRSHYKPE
The assay is described as follows: Homogenous Time-Resolved Fluorescence (HTRF) binding assay. As to conditions: 0.15 nM biotinylated truncated STAT6 (123-632)-avi, 20 nM fluorescein-labeled probe, 30 minutes at room temperature. In general terms: TR-FRET usually uses a lanthanide donor and a delayed reading to cut background.

What is called IC50 is the midpoint of a concentration-inhibition curve. Low values mean greater potency, high ones weaker potency. Compound `COc1cc(F)cnc1N1CCN(C(=O)c2cc3c(C4=CCCC4)cc(C4=CCCN(C(=O)CCn5ccnn5)C4)c(F)c3[nH]2)CC1` [Example I-1134] had an IC50 of less than 100 nM.
Compound `COc1cc(F)cnc1N1CCN(C(=O)c2cc3c(C4=CCCCC4)cc(C4=CCCN(C(=O)CCn5ccnn5)C4)c(F)c3[nH]2)CC1` [Example I-1135] had an IC50 of less than 100 nM.
Compound `COc1cc(F)cnc1N1CCN(C(=O)c2cc3c(-c4ccc(=O)n(Cc5ccccc5)c4)cc(C4=CCCN(C(=O)CCn5ccnn5)C4)c(F)c3[nH]2)CC1` [Example I-1136] yielded a half-inhibitory concentration (IC50) of less than 100 nM.
In turn, `COc1cc(F)cnc1N1CCN(C(=O)c2cc3c(-c4ccc(CN5CCOCC5)nc4)cc(C4=CCCN(C(=O)CCn5ccnn5)C4)c(F)c3[nH]2)CC1` [Example I-1137] displayed a half-inhibitory concentration (IC50) of less than 100 nM.
To `COc1cc(F)cnc1N1CCN(C(=O)c2cc3c(-c4ccc(N5C[C@@H](C)O[C@@H](C)C5)nc4)cc(C4=CCCN(C(=O)CCn5ccnn5)C4)c(F)c3[nH]2)CC1` [Example I-1138] belongs less than 100 nM; to `COc1cc(F)cnc1N1CCN(C(=O)c2cc3c(-c4ccc(C#N)c(C)c4)cc(C4=CCCN(C(=O)CCn5ccnn5)C4)c(F)c3[nH]2)CC1` [Example I-1139], less than 100 nM.
For `COc1cc(F)cnc1N1CCN(C(=O)c2cc3c(-c4ccc(C5(C#N)CC5)cc4)cc(C4=CCCN(C(=O)CCn5ccnn5)C4)c(F)c3[nH]2)CC1` [Example I-1140], the IC50 is less than 100 nM.
`COc1cc(F)cnc1N1CCN(C(=O)c2cc3c(C4=CCC(C#N)CC4)cc(C4=CCCN(C(=O)CCn5ccnn5)C4)c(F)c3[nH]2)CC1` (stereo not drawn) [Example I-1141] had an IC50 of less than 100 nM.
To `COc1cc(F)cnc1N1CCN(C(=O)c2cc3c(-c4ccc(C(C)(C)C#N)cc4)cc(C4=CCCN(C(=O)CCn5ccnn5)C4)c(F)c3[nH]2)CC1` [Example I-1142] belongs less than 100 nM; to `COc1cc(F)cnc1N1CCN(C(=O)c2cc3c(-c4ccc(C(=O)N5CCCC5)cc4F)cc(C4=CCCN(C(=O)CCn5ccnn5)C4)c(F)c3[nH]2)CC1` [Example I-1143], less than 100 nM; to `COc1cc(F)cnc1N1CCN(C(=O)c2cc3c(-c4ccc(C(=O)N5CCCC5)c(F)c4)cc(C4=CCCN(C(=O)CCn5ccnn5)C4)c(F)c3[nH]2)CC1` [Example I-1144], less than 100 nM.
To `COc1cc(F)cnc1N1CCN(C(=O)c2cc3c(-c4ccc(C(O)C(F)(F)F)cc4)cc(C4=CCCN(C(=O)CCn5ccnn5)C4)c(F)c3[nH]2)CC1` (stereo not drawn) [Example I-1145] belongs less than 100 nM; to `COc1cc(F)cnc1N1CCN(C(=O)c2cc3c(-c4ccc(C5(O)CCC5)cc4)cc(C4=CCCN(C(=O)CCn5ccnn5)C4)c(F)c3[nH]2)CC1` [Example I-1146], less than 100 nM; to `COCOc1ccc(-c2cc(C3=CCCN(C(=O)CCn4ccnn4)C3)c(F)c3[nH]c(C(=O)N4CCN(c5ncc(F)cc5OC)CC4)cc23)cc1` [Example I-1147], less than 100 nM.
For the compound `COc1cc(F)cnc1N1CCN(C(=O)c2cc3c(-c4ccc5c(c4)OCCCO5)cc(C4=CCCN(C(=O)CCn5ccnn5)C4)c(F)c3[nH]2)CC1` [Example I-1148], the IC50 was less than 100 nM.
Consider `COc1ccncc1-c1cc(C2=CCCN(C(=O)CCn3ccnn3)C2)c(F)c2[nH]c(C(=O)N3CCN(C4CCCCC4)CC3)cc12` [Example I-1149], for which the IC50 is less than 100 nM.
`COc1cccnc1N1CCN(C(=O)c2cc3c(C4=CCN(C)CC4C)cc(C4=CCCN(C(=O)CCn5ccnn5)C4)c(F)c3[nH]2)CC1` (stereo not drawn) [Example I-1150]: the half-inhibitory concentration (IC50) was less than 100 nM.
`COc1cc(F)cnc1N1CCN(C(=O)c2cc3c(-c4cnn(C5CC5)c4)cc(C4=CCCN(C(=O)CCn5ccnn5)C4)c(F)c3[nH]2)CC1` [Example I-1151] yielded a half-maximal inhibitory concentration (IC50) of less than 100 nM.
The result for `COc1cc(F)cnc1N1CCN(C(=O)c2cc3c(-c4ccc(-c5cccnc5)cc4)cc(C4=CCCN(C(=O)CCn5ccnn5)C4)c(F)c3[nH]2)CC1` [Example I-1152] reads less than 100 nM.
The compound `COc1cc(F)cnc1N1CCN(C(=O)c2cc3c(C4=CCC(N5CCOCC5)CC4)cc(C4=CCCN(C(=O)CCn5ccnn5)C4)c(F)c3[nH]2)CC1` (stereo not drawn) [Example I-1153] showed an IC50 of less than 100 nM.
`COc1cc(F)cnc1N1CCN(C(=O)c2cc3c(-c4cccc(CN5CCOCC5)c4)cc(C4=CCCN(C(=O)CCn5ccnn5)C4)c(F)c3[nH]2)CC1` [Example I-1154] had a half-inhibitory concentration (IC50) of less than 100 nM.
`COc1cc(F)cnc1N1CCN(C(=O)c2cc3c(C4=COCCC4)cc(C4=CCCN(C(=O)CCn5ccnn5)C4)c(F)c3[nH]2)CC1` [Example I-1155] came in with a concentration for half-maximal inhibition (IC50) of less than 100 nM.
The result for `COc1cc(F)cnc1N1CCN(C(=O)c2cc3c(C4=CCOCC4)cc(C4=CCCN(C(=O)CCn5ccnn5)C4)c(F)c3[nH]2)CC1` [Example I-1156] reads less than 100 nM; that for `COc1cc(F)cnc1N1CCN(C(=O)c2cc3c(-c4ccc(C5CC5)cc4)cc(C4=CCCN(C(=O)CCn5ccnn5)C4)c(F)c3[nH]2)CC1` [Example I-1157], less than 100 nM; that for `COc1cc(F)cnc1N1CCN(C(=O)c2cc3c(C4=CCC(F)(F)CC4)cc(C4=CCCN(C(=O)CCn5ccnn5)C4)c(F)c3[nH]2)CC1` [Example I-1158], less than 100 nM.
`COc1cc(F)cnc1N1CCN(C(=O)c2cc3c(-c4ccc(C(F)F)cc4)cc(C4=CCCN(C(=O)CCn5ccnn5)C4)c(F)c3[nH]2)CC1` [Example I-1160]: the IC50 was less than 100 nM.
In turn, `COc1cc(F)cnc1N1CCN(C(=O)c2cc3c(C4=Cc5ccccc5C4)cc(C4=CCCN(C(=O)CCn5ccnn5)C4)c(F)c3[nH]2)CC1` [Example I-1161] gave a 50% inhibitory concentration (IC50) of 100 to 1000 nM.
On to `COc1cc(F)cnc1N1CCN(C(=O)c2cc3c(/C=C/CCl)cc(C4=CCCN(C(=O)CCn5ccnn5)C4)c(F)c3[nH]2)CC1` [Example I-1162], for which the 50% inhibitory concentration (IC50) lay in the range of 1000 to 10000 nM.
The result for `COc1cc(F)cnc1N1CCN(C(=O)c2cc3c(/C=C/C4CCCCC4)cc(C4=CCCN(C(=O)CCn5ccnn5)C4)c(F)c3[nH]2)CC1` [Example I-1163] reads 100 to 1000 nM.
With `COc1cc(F)cnc1N1CCN(C(=O)c2cc3c(-c4ccc(OCC5CC5)nc4)cc(C4=CCCN(C(=O)CCn5ccnn5)C4)c(F)c3[nH]2)CC1` [Example I-1164], the half-inhibitory concentration (IC50) was in the range of 100 to 1000 nM.
For `COc1cc(F)cnc1N1CCN(C(=O)c2cc3c(-c4ccc(C(=O)N(C)C)cc4)cc(C4=CCCN(C(=O)CCn5ccnn5)C4)c(F)c3[nH]2)CC1` [Example I-1165], the IC50 was less than 100 nM.
For the compound `COc1cc(F)cnc1N1CCN(C(=O)c2cc3c(-c4ccc(C(F)(F)F)cc4CO)cc(C4=CCCN(C(=O)CCn5ccnn5)C4)c(F)c3[nH]2)CC1` [Example I-1167], the half-inhibitory concentration (IC50) was less than 100 nM.
For `CCC1CCCC=C1c1cc(C2=CCCN(C(=O)CCn3ccnn3)C2)c(F)c2[nH]c(C(=O)N3CCN(c4ncccc4OC)CC3)cc12` (stereo not drawn) [Example I-1168], the concentration for half-maximal inhibition (IC50) lay in the range of 100 to 1000 nM.
`CCc1ccncc1-c1cc(C2=CCCN(C(=O)CCC(=O)O)C2)c(F)c2[nH]c(C(=O)N3CCN(c4ncc(F)cc4OC)CC3)cc12` [Example I-1170] had a half-maximal inhibitory concentration (IC50) of 100 to 1000 nM.
For the compound `COc1ccccc1-c1cc(C2=CCCN(C(=O)CCn3ccnn3)C2)c(F)c2[nH]c(CN3CCN(c4ncccc4OC)CC3=O)cc12` [Example I-1171], the half-inhibitory concentration (IC50) was in the range of 100 to 1000 nM.
Regarding `CCC1=C(c2cc(C3=CCCN(C(=O)CCn4ccnn4)C3)c(F)c3[nH]c(C(=O)N4CCN(c5ncc(F)cc5OC)CC4)cc23)CCCC1` [Example I-1172], the IC50 fell in the range of 100 to 1000 nM.
